Source: patent US20210238308A1 (Chugai, published 2021)

T1: PRYSPRY domain of human TRIM21 with N-terminal 6xHis tag (human)
T1 construct: Expressed in E. coli; also called hTRIM21; human TRIM21.PRYSPRY
T1 chain: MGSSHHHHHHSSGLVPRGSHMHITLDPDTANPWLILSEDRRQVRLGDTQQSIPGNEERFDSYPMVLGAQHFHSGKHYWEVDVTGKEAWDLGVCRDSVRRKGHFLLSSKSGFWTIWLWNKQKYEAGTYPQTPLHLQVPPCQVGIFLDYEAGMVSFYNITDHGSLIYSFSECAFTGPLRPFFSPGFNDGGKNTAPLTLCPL

T2: PRYSPRY domain of mouse TRIM21 with N-terminal 6xHis tag (mouse)
T2 construct: Expressed in E. coli; also called mTRIM21; mouse TRIM21.PRYSPRY
T2 chain: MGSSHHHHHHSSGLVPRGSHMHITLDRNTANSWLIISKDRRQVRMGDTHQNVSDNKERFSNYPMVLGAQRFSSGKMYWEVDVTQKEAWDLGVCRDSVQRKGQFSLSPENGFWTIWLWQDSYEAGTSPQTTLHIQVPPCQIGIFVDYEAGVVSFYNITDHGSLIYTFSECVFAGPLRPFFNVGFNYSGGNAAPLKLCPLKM

B1: MRAH-G1d/MRAL-KT0 H435Y (antibody, human IgG1, kappa)
heavy: QVQLQESGPGLVRPSQTLSLTCTVSGYSITSDHAWSWVRQPPGRGLEWIGYISYSGITTYNPSLKSRVTMLRDTSKNQFSLRLSSVTAADTAVYYCARSLARTTAMDYWGQGSLVTVSS[human IgG1 constant region with H435Y (EU numbers) omitted here]
light: DIQMTQSPSSLSASVGDRVTITCRASQDISSYLNWYQQKPGKAPKLLIYYTSRLHSGVPSRFSGSGSGTDFTFTISSLQPEDIATYYCQQGNTLPYTFGQGTKVEIKRTVAAPSVFIFPPSDEQLKSGTASVVCLLNNFYPREAKVQWKVDNALQSGNSQESVTEQDSKDSTYSLSSTLTLSKADYEKHKVYACEVTHQGLSSPVTKSFNRGEC
notes: copies: 2 + 2
B2: MRAH-G1d/MRAL-KT0 H435W (antibody, human IgG1, kappa)
heavy: QVQLQESGPGLVRPSQTLSLTCTVSGYSITSDHAWSWVRQPPGRGLEWIGYISYSGITTYNPSLKSRVTMLRDTSKNQFSLRLSSVTAADTAVYYCARSLARTTAMDYWGQGSLVTVSS[human IgG1 constant region with H435W (EU numbers) omitted here]
light: B1 light
notes: copies: 2 + 2
B3: MRAH-G1d/MRAL-KT0 I253Y (antibody, human IgG1, kappa)
heavy: QVQLQESGPGLVRPSQTLSLTCTVSGYSITSDHAWSWVRQPPGRGLEWIGYISYSGITTYNPSLKSRVTMLRDTSKNQFSLRLSSVTAADTAVYYCARSLARTTAMDYWGQGSLVTVSS[human IgG1 constant region with I253Y (EU numbers) omitted here]
light: B1 light
notes: copies: 2 + 2
B4: MRAH-G1d/MRAL-KT0 I253H (antibody, human IgG1, kappa)
heavy: QVQLQESGPGLVRPSQTLSLTCTVSGYSITSDHAWSWVRQPPGRGLEWIGYISYSGITTYNPSLKSRVTMLRDTSKNQFSLRLSSVTAADTAVYYCARSLARTTAMDYWGQGSLVTVSS[human IgG1 constant region with I253H (EU numbers) omitted here]
light: B1 light
notes: copies: 2 + 2
B5: MRAH-G1d/MRAL-KT0 I253V (antibody, human IgG1, kappa)
heavy: QVQLQESGPGLVRPSQTLSLTCTVSGYSITSDHAWSWVRQPPGRGLEWIGYISYSGITTYNPSLKSRVTMLRDTSKNQFSLRLSSVTAADTAVYYCARSLARTTAMDYWGQGSLVTVSS[human IgG1 constant region with I253V (EU numbers) omitted here]
light: B1 light
notes: copies: 2 + 2
B6: MRAH-G1d/MRAL-KT0 H435V (antibody, human IgG1, kappa)
heavy: QVQLQESGPGLVRPSQTLSLTCTVSGYSITSDHAWSWVRQPPGRGLEWIGYISYSGITTYNPSLKSRVTMLRDTSKNQFSLRLSSVTAADTAVYYCARSLARTTAMDYWGQGSLVTVSS[human IgG1 constant region with H435V (EU numbers) omitted here]
light: B1 light
notes: copies: 2 + 2
B7: MRAH-G1d/MRAL-KT0 I253M (antibody, human IgG1, kappa)
heavy: QVQLQESGPGLVRPSQTLSLTCTVSGYSITSDHAWSWVRQPPGRGLEWIGYISYSGITTYNPSLKSRVTMLRDTSKNQFSLRLSSVTAADTAVYYCARSLARTTAMDYWGQGSLVTVSS[human IgG1 constant region with I253M (EU numbers) omitted here]
light: B1 light
notes: copies: 2 + 2
B8: MRAH-G1d/MRAL-KT0 H435S (antibody, human IgG1, kappa)
heavy: QVQLQESGPGLVRPSQTLSLTCTVSGYSITSDHAWSWVRQPPGRGLEWIGYISYSGITTYNPSLKSRVTMLRDTSKNQFSLRLSSVTAADTAVYYCARSLARTTAMDYWGQGSLVTVSS[human IgG1 constant region with H435S (EU numbers) omitted here]
light: B1 light
notes: copies: 2 + 2
B9: MRAH-G1d/MRAL-KT0 L309E (antibody, human IgG1, kappa)
heavy: QVQLQESGPGLVRPSQTLSLTCTVSGYSITSDHAWSWVRQPPGRGLEWIGYISYSGITTYNPSLKSRVTMLRDTSKNQFSLRLSSVTAADTAVYYCARSLARTTAMDYWGQGSLVTVSS[human IgG1 constant region with L309E (EU numbers) omitted here]
light: B1 light
notes: copies: 2 + 2
B10: MRAH-G1d/MRAL-KT0 I253W (antibody, human IgG1, kappa)
heavy: QVQLQESGPGLVRPSQTLSLTCTVSGYSITSDHAWSWVRQPPGRGLEWIGYISYSGITTYNPSLKSRVTMLRDTSKNQFSLRLSSVTAADTAVYYCARSLARTTAMDYWGQGSLVTVSS[human IgG1 constant region with I253W (EU numbers) omitted here]
light: B1 light
notes: copies: 2 + 2
B11: MRAH-G1d/MRAL-KT0 I253L (antibody, human IgG1, kappa)
heavy: QVQLQESGPGLVRPSQTLSLTCTVSGYSITSDHAWSWVRQPPGRGLEWIGYISYSGITTYNPSLKSRVTMLRDTSKNQFSLRLSSVTAADTAVYYCARSLARTTAMDYWGQGSLVTVSS[human IgG1 constant region with I253L (EU numbers) omitted here]
light: B1 light
notes: copies: 2 + 2
B12: MRAH-G1d/MRAL-KT0 L309Y (antibody, human IgG1, kappa)
heavy: QVQLQESGPGLVRPSQTLSLTCTVSGYSITSDHAWSWVRQPPGRGLEWIGYISYSGITTYNPSLKSRVTMLRDTSKNQFSLRLSSVTAADTAVYYCARSLARTTAMDYWGQGSLVTVSS[human IgG1 constant region with L309Y (EU numbers) omitted here]
light: B1 light
notes: copies: 2 + 2
B13: MRAH-G1d/MRAL-KT0 L309M (antibody, human IgG1, kappa)
heavy: QVQLQESGPGLVRPSQTLSLTCTVSGYSITSDHAWSWVRQPPGRGLEWIGYISYSGITTYNPSLKSRVTMLRDTSKNQFSLRLSSVTAADTAVYYCARSLARTTAMDYWGQGSLVTVSS[human IgG1 constant region with L309M (EU numbers) omitted here]
light: B1 light
notes: copies: 2 + 2
B14: MRAH-G1d/MRAL-KT0 I253F (antibody, human IgG1, kappa)
heavy: QVQLQESGPGLVRPSQTLSLTCTVSGYSITSDHAWSWVRQPPGRGLEWIGYISYSGITTYNPSLKSRVTMLRDTSKNQFSLRLSSVTAADTAVYYCARSLARTTAMDYWGQGSLVTVSS[human IgG1 constant region with I253F (EU numbers) omitted here]
light: B1 light
notes: copies: 2 + 2

Target: T1, PRYSPRY domain of human TRIM21 with …
Experiment: SPR, Protein L capture

hTRIM21 binding level ratio (variant/control antibody)	Binder
0.077	B1
0.067	B2
1.46	B3
0.928	B4
0.902	B5
-0.003	B6
1.38	B7
-0.082	B8
0.229	B9
0.912	B10
1.47	B11
0.942	B12
0.831	B13
1.45	B14

Target: T2, PRYSPRY domain of mouse TRIM21 with …
Experiment: SPR, Protein L capture

mTRIM21 binding level ratio (variant/control antibody)	Binder
1.79	B1
1.87	B2
1.25	B3
1.32	B4
0.832	B5
1.35	B6
2.71	B7
1.23	B8
1.28	B9
2.35	B10
3.28	B11
2.27	B12
2.22	B13
2.31	B14

Target: T3, human FcRn (human, UniProt P55899 partial chain; P61769 partial chain, limits assumed)
T3 construct: also called hFcRn
Experiment: SPR, Protein L capture

hFcRn binding level ratio (variant/control antibody)	Binder
0.02	B1
0.01	B2
0	B3
0	B4
0.03	B5
0.03	B6
0.31	B7
0.02	B8
0.02	B9
0	B10
0.03	B11
0.12	B12
0.88	B13
0	B14
